SMILES strings stand for the structures. Over roughly 1,000 compounds, “relative growth in counter assay (no AraC = 100%, AraC + DMSO = 0%)” has its median near -1.1; the highest 2% begin near 20. The list shows a part of the results.

The test system of the assay is HEK293FT dCK*-only. Description: relative growth in counter assay (no AraC = 100%, AraC + DMSO = 0%); higher = more growth rescue independent of IKZF1. To be noted: compound concentration: 5 uM; AraC concentration: 0.3 uM; overnight pretreatment + 4 days AraC. The procedure:
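Growth recovery screen of the molecular-glue-like (Specs) library. HEK293FT cells expressing a dCK*-IKZF1 fusion (primary) or dCK* alone (counter) were pretreated overnight with compound at 5 uM, then given 0.3 uM AraC for 4 days. Hoechst nuclei were counted by imaging. Primary: normalised to pomalidomide (100%) and DMSO (0%), mean of 2 replicates. Counter: normalised to no-AraC (100%) and AraC+DMSO (0%), single replicate.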
For `Cc1cnc(Nc2cccc(C3(CO)CCN(C(=O)C4CCCCC4)CC3)n2)s1`, the “relative growth in counter assay” value is -10.4%.
In the case of `Cc1cnc(Nc2cccc(C3CN(C(=O)C(C)(C)C)CCO3)n2)s1` (stereo not drawn) it was -10.3%.
The same measure for `Cc1cc(C)nc(NS(=O)(=O)c2ccc(NC(=O)C3CC(=O)N(c4ccccc4)C3)cc2)n1` (stereo not drawn): 4.27%.
In the case of `COc1ccc(CN(C(=O)CSc2nnc3c(n2)[nH]c2ccc(OC)cc23)c2ccc(F)cc2)cc1`, the “relative growth in counter assay” value amounted to 17.3%.
The same measure for `Cc1cc(C)c(C(=O)Nc2ccc(S(=O)(=O)Nc3ncccn3)cc2)c(C)c1`: -5.77%.
Regarding `Cc1cc(C)nc(NS(=O)(=O)c2ccc(NC(=O)CSc3nc4c(cc3C#N)CCCC4)cc2)n1`, the “relative growth in counter assay” value was -0.73%.
The same measure for `CC(=O)N1CCC(CCc2ccnc(Nc3nccs3)c2)CC1`: 9.32%.
The same measure for `Cc1cccc(C(=O)Nc2ccc(S(=O)(=O)Nc3nc(C)cc(C)n3)cc2)c1`: -3.41%.
Turning to `Cc1cc(C)nc(NS(=O)(=O)c2ccc(NS(C)(=O)=O)cc2)n1`, the “relative growth in counter assay” value was -3.14%.
In the case of `Cc1cnc(Nc2cccc(C3CN(C(=O)Cn4nnc5ccccc54)CCO3)n2)s1` (stereo not drawn) it was -3.81%; in that of `Cc1cc(C)nc(NS(=O)(=O)c2ccc(NC(=O)NC3CCCCC3)cc2)n1`, -11.4%.
In the case of `Cc1ccc(Oc2ccc3c(c2)C(=O)N(c2ccc(C(N)=O)cc2)C3=O)cc1C` it was 3.9%.
The same measure for `Cc1cnc(Nc2cccc(C3CCN(C(=O)c4cccnc4)CC3)n2)s1`: -24.4%; for `CC(=O)N1CCC(c2cccc(Nc3nc(C)cs3)n2)CC1`: -1.17%.
Consider `O=C(/C=C/c1ccco1)N1CCCC1c1csc(Nc2ccccn2)n1` (stereo not drawn), for which the “relative growth in counter assay” value is -4.52%.
The same measure for `CC(=O)N1CCCC1c1cccc(Nc2nc(C)cs2)n1` (stereo not drawn): -5.77%; for `Cc1csc(Nc2cccc(C3CCN(C(=O)CN)CC3)n2)n1`: -14.7%.
In the case of `Cn1c(SCC(=O)Nc2ccccn2)nc2ccccc21` it was 0.85%; in that of `Cc1cnc(Nc2cccc(C3CCN(C(=O)c4cccc5cccnc45)CC3)n2)s1`, 2.54%; in that of `CC(=O)Oc1cccc(N2C(=O)c3ccc(Oc4ccc(N)cc4)cc3C2=O)c1`, -2.02%.
For the compound `CNC(=O)[C@@H]1CCCC[C@@H]1C(=O)N1CCC(c2cccc(Nc3ncc(C)s3)n2)CC1`, the “relative growth in counter assay” value is -23.8%.
In the case of `Cc1nn(C)c(C)c1/C=C/C(=O)N1CCC(c2cc3ccccc3c(Nc3nccs3)n2)CC1` it was 13.6%; in that of `Cc1ccnc(NS(=O)(=O)c2ccc([N+](=O)[O-])cc2)c1`, 14.4%; in that of `Cc1cc(C)c(C(=O)Nc2ccc(S(=O)(=O)Nc3ccccn3)cc2)c(C)c1`, -4.58%.
In the case of `Cc1cnc(NC(=O)CN2CCC(c3cccc(Nc4nc(C)c(C)s4)n3)CC2)s1` it was 24.2%; in that of `CC(=O)Nc1ccc(Oc2ccc3c(c2)C(=O)N(c2ccccc2C)C3=O)cc1`, 1.06%.
The same measure for `COC(=O)CCC(=O)Nc1ccc(S(=O)(=O)Nc2nc(C)cc(C)n2)cc1`: 0.66%.
Regarding `CN[C@@H]1CCC[C@@H](n2cnc3c(N)nc(N)nc32)[C@@H]1O`, the “relative growth in counter assay” value stood at 8.12%.
In the case of `Cc1ccnc(NS(=O)(=O)c2ccc(N3C(=O)c4ccc(C(=O)O)cc4C3=O)cc2)n1` it was 6.09%.
Turning to `Cc1ccnc(NS(=O)(=O)c2ccc(NC(=O)CC34CC5CC(CC(C5)C3)C4)cc2)n1`, the “relative growth in counter assay” value was -2.13%.
In the case of `O=C1c2ccc(Oc3ccc(NC(=O)C(F)(F)F)cc3)cc2C(=O)N1c1ccc(O)cc1`, the “relative growth in counter assay” value is -3.44%.
The same measure for `Cc1cc(NS(=O)(=O)c2ccc(NC(=O)COc3ccc(C)c(C)c3)cc2)nc(C)n1`: -19.5%; for `Cc1ccnc(NS(=O)(=O)c2ccc(N3C(=O)C4C5C=CC(C5)C4C3=O)cc2)n1` (stereo not drawn): -2.2%; for `Nc1cccc(Oc2ccc3c(c2)C(=O)N(CCO)C3=O)c1`: -0.05%.
In the case of `Cc1ccnc(NS(=O)(=O)c2ccc(NC(=O)C(C)(C)C)cc2)n1`, the “relative growth in counter assay” value is 6.32%.
In the case of `Cc1cc(C)nc(NS(=O)(=O)c2ccc(NC(=O)C(C)Oc3ccccc3)cc2)n1` (stereo not drawn) it was -1.9%; in that of `O=C(O)CN1CCN(c2cccc3c2C(=O)N(C2CCC(=O)NC2=O)C3=O)CC1` (stereo not drawn), 4.29%; in that of `O=C(CO)N1CCC(c2cccc(Nc3ncc(-c4ccccc4)s3)n2)CC1`, -21.4%.
The same measure for `CC(=O)Nc1ccc(S(=O)(=O)Nc2ccc(S(=O)(=O)Nc3ncccn3)cc2)cc1`: -0.11%.
As to `O=C(CCc1c[nH]c2ccccc12)N1CCCC1c1cccc(Nc2nccs2)n1` (stereo not drawn), the “relative growth in counter assay” value is -6.78%.
Regarding `Cc1csc(Nc2cccc(C3CN(C(=O)CCC4CCCC4)CCO3)n2)n1` (stereo not drawn), the “relative growth in counter assay” value turned out to be 32.3%.
Regarding `Cc1cc(C)nc(NS(=O)(=O)c2ccc(NC(=O)CCC(=O)O)cc2)n1`, the “relative growth in counter assay” value was -5.29%.
The same measure for `O=C(C1CCCCN1)N1CCC(c2cccc(Nc3ncc(-c4ccccc4)s3)n2)CC1` (stereo not drawn): -3.42%; for `O=C(Nc1ccc(S(=O)(=O)Nc2ccccn2)cc1)c1ccco1`: 4.23%; for `Cc1csc(Nc2cccc(C3CCCN3C(=O)c3n[nH]c4c3CCCCCC4)n2)n1` (stereo not drawn): -0.03%.
Regarding `O=C(c1cccc2ncccc12)N1CCOC(c2cccc(Nc3nccs3)n2)C1` (stereo not drawn), the “relative growth in counter assay” value was -3.73%.
The same measure for `Cc1cc(NS(=O)(=O)c2ccc(NC(=O)CCc3ccccc3)cc2)nc(C)n1`: 0.94%; for `Cc1cccc(OCC(=O)Nc2ccc(S(=O)(=O)Nc3nc(C)cc(C)n3)cc2)c1`: -12%.
